# Assay results: US6703347B2, “Isothiazole derivatives and their use as pesticides” (Syngenta Limited, priority 2000, dated 2004)
# Test system: root knot nematodes (Meloidogyne incognita)
# Experiment: whole plant or invertebrate
# Details: 12.5 ppm by weight, in vitro, no SYNPERONIC NP8
# Description: SYNPERONIC is a registered trade mark.
row,Structure (SMILES),mortality (score) Mi
1,Cc1nsc(NC(=O)C(C)c2ccc3oc(CC(C)C)nc3c2)c1Cl (stereo not shown) [Table 1 Compound 6],0 (represents less than 40% mortality)
2,CCOCN(C(=O)C(C)c1ccc2oc(CC(C)C)nc2c1)c1snc(C)c1Cl (stereo not shown) [Table 1 Compound 76],5 (5 indicates 40-79% mortality)
3,CCOCN(C(=O)C(C)c1ccc2oc(CC(C)(C)C)nc2c1)c1snc(C)c1Cl (stereo not shown) [Table 1 Compound 77],0 (represents less than 40% mortality)
4,CCOCN(C(=O)C(C)c1ccc2oc(CC(F)(F)F)nc2c1)c1snc(C)c1Cl (stereo not shown) [Table 1 Compound 78],0 (represents less than 40% mortality)
5,CCOCN(C(=O)C(C)c1ccc2oc(C(F)(F)C(F)(F)C(F)(F)F)nc2c1)c1snc(C)c1Cl (stereo not shown) [Table 1 Compound 80],0 (represents less than 40% mortality)
6,CCc1nsc(NC(=O)C(C)c2ccc3oc(C)nc3c2)c1Cl (stereo not shown) [Table 1 Compound 81],0 (represents less than 40% mortality)
7,CCc1nsc(NC(=O)C(C)c2ccc3oc(CC(C)C)nc3c2)c1Cl (stereo not shown) [Table 1 Compound 86],0 (represents less than 40% mortality)
8,CCc1nsc(NC(=O)C(C)c2ccc3oc(CC(C)(C)C)nc3c2)c1Cl (stereo not shown) [Table 1 Compound 87],0 (represents less than 40% mortality)
9,CCc1nsc(NC(=O)C(C)c2ccc3oc(CC(F)(F)F)nc3c2)c1Cl (stereo not shown) [Table 1 Compound 88],0 (represents less than 40% mortality)
10,CCc1nsc(NC(=O)C(C)c2ccc3oc(C(F)(F)C(F)(F)C(F)(F)F)nc3c2)c1Cl (stereo not shown) [Table 1 Compound 90],0 (represents less than 40% mortality)
11,CCOCN(C(=O)C(C)c1ccc2oc(CC(C)C)nc2c1)c1snc(CC)c1Cl (stereo not shown) [Table 1 Compound 156],0 (represents less than 40% mortality)
12,CCOCN(C(=O)C(C)c1ccc2oc(CC(C)(C)C)nc2c1)c1snc(CC)c1Cl (stereo not shown) [Table 1 Compound 157],0 (represents less than 40% mortality)
13,CCOCN(C(=O)C(C)c1ccc2oc(C(F)(F)C(F)(F)F)nc2c1)c1snc(CC)c1Cl (stereo not shown) [Table 1 Compound 159],0 (represents less than 40% mortality)
14,CCOCN(C(=O)C(C)c1ccc2oc(C(F)(F)C(F)(F)C(F)(F)F)nc2c1)c1snc(CC)c1Cl (stereo not shown) [Table 1 Compound 160],0 (represents less than 40% mortality)
15,CCC(C(=O)Nc1snc(C)c1Cl)c1ccc2oc(C(F)(F)C(F)(F)C(F)(F)F)nc2c1 (stereo not shown) [Table 2 Compound 10],0 (represents less than 40% mortality)
16,CCc1nsc(NC(=O)C(CC)c2ccc3oc(C(F)(F)C(F)(F)C(F)(F)F)nc3c2)c1Cl (stereo not shown) [Table 2 Compound 90],0 (represents less than 40% mortality)

row,Structure (SMILES),mortality (score) Mi
1,Cc1nsc(NC(=O)C(F)c2ccc3oc(CC(C)C)nc3c2)c1Cl (stereo not shown) [Table 5 Compound 6],9 (9 indicates 80-100% mortality)
2,Cc1nsc(NC(=O)C(F)c2ccc3oc(C(F)(F)C(F)(F)C(F)(F)F)nc3c2)c1Cl (stereo not shown) [Table 5 Compound 10],0 (represents less than 40% mortality)
3,CCOCN(C(=O)C(F)c1ccc2oc(CC(C)(C)C)nc2c1)c1snc(C)c1Cl (stereo not shown) [Table 5 Compound 77],0 (represents less than 40% mortality)
4,CCc1nsc(NC(=O)C(F)c2ccc3oc(C(F)(F)C(F)(F)C(F)(F)F)nc3c2)c1Cl (stereo not shown) [Table 5 Compound 90],0 (represents less than 40% mortality)
5,CCOCN(C(=O)C(F)c1ccc2oc(C(F)(F)C(F)(F)C(F)(F)F)nc2c1)c1snc(CC)c1Cl (stereo not shown) [Table 5 Compound 160],0 (represents less than 40% mortality)
6,Cc1nsc(NC(=O)C(O)c2ccc3oc(CC(C)(C)C)nc3c2)c1Cl (stereo not shown) [Table 7 Compound 7],9 (9 indicates 80-100% mortality)
7,CCc1nsc(NC(=O)C(OC)c2ccc3oc(CC(C)C)nc3c2)c1Cl (stereo not shown) [Table 9 Compound 86],5 (5 indicates 40-79% mortality)
8,Cc1nsc(NC(=O)C(=O)c2ccc3oc(CC(C)(C)C)nc3c2)c1Cl [Table 10 Compound 7],0 (represents less than 40% mortality)
9,Cc1nsc(NC(=O)C(=CO)c2ccc3oc(CC(C)(C)C)nc3c2)c1Cl [Table 12 Compound 7],0 (represents less than 40% mortality)
10,Cc1nsc(NC(=O)C(CC#N)c2ccc3oc(CC(C)(C)C)nc3c2)c1Cl (stereo not shown) [Table 20 Compound 7],0 (represents less than 40% mortality)
11,CC(=O)OCC(C(=O)Nc1snc(C)c1Cl)c1ccc2oc(CC(C)(C)C)nc2c1 (stereo not shown) [Table 28 Compound 7],0 (represents less than 40% mortality)
12,CCc1nsc(NC(=O)C(C)c2ccc3sc(CC(C)(C)C)nc3c2)c1Cl (stereo not shown) [Table 39 Compound 87],0 (represents less than 40% mortality)
13,Cc1nsc(NC(=O)C(F)c2ccc3sc(CC(C)(C)C)nc3c2)c1Cl (stereo not shown) [Table 42 Compound 7],0 (represents less than 40% mortality)
14,CCc1nsc(NC(=O)C(F)c2ccc3sc(CC(C)(C)C)nc3c2)c1Cl (stereo not shown) [Table 42 Compound 87],0 (represents less than 40% mortality)
15,CCOCN(C(=O)/C=C/c1ccc2oc(CC(C)(C)C)nc2c1)c1snc(C)c1Cl [Table 81 Compound 77],0 (represents less than 40% mortality)
16,CCOCN(C(=O)CCc1ccc2oc(CC(C)(C)C)nc2c1)c1snc(C)c1Cl [Table 82 Compound 77],0 (represents less than 40% mortality)

# Same assay, conditions: Meloidogyne incognita, read-out: mortality (score) Mi
row,Structure (SMILES),mortality at 12.5 ppm [%]
1,"Cc1nsc(NC(=O)C(C)c2ccc3oc(CC(F)(F)F)nc3c2)c1Cl (stereo not shown) [Table 1 Compound 8, N-(4-chloro-3-methylisothiazol-5-yl)-2-[2-(2,2,2-trifluoroethyl)benzoxazol-5-yl]propionamide]",< 40
2,"Cc1nsc(NC(=O)C(C)(F)c2ccc3oc(CC(C)(C)C)nc3c2)c1Cl (stereo not shown) [Table 6 Compound 7, N-(4-chloro-3-methylisothiazol-5-yl)-2-[2-(2,2-dimethylpropyl)benzoxazol-5-yl]-2-fluoropropionamide]",< 40
